Results taken from the supplement of paper PMC8728848.
The list shows a part of the results.

Key:
Assay in all cases: glycan array binding signal (z-score within array); higher = stronger binding
Settings in all cases: glycan notation: IUPAC condensed, linker removed
[1] = target: Gal(b1-3)[Neu5Ac(a2-6)]GlcNAc
Outline: (§1)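 Glycan array binding is given as a within-array Z-score, which can be read as non-binding when negative. The arrays, 3228 of them, came from the Consortium for Functional Glycomics database and were retained only where the protein sequence was available. Z-scores were averaged across arrays of the same protein sequence at different concentrations or buffers and across linkers.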

[2] = target: Gal(b1-3)[Neu5Ac(a2-6)]GlcNAc(a1-4)Gal(b1-4)Glc
Outline: as §1

[3] = target: Gal(b1-3)[Neu5Ac(a2-6)]GlcNAc(b1-4)Gal(b1-4)Glc
Outline: as §1

[4] = target: Gal(b1-3)[Neu5Ac(b2-6)]GalNAc
Outline: as §1

[5] = target: Gal(b1-3)[Neu5Ac(b2-6)]GlcNAc
Outline: as §1

Gal(b1-4)Gal = target: Gal(b1-4)Gal
Outline: as §1

[6] = target: Gal(b1-4)GalNAc(a1-3)[Fuc(a1-2)]Gal(b1-4)GlcNAc
Outline: as §1

[7] = target: Gal(b1-4)GalNAc(b1-3)[Fuc(a1-2)]Gal(b1-4)GlcNAc
Outline: as §1

Gal(b1-4)Glc = target: Gal(b1-4)Glc
Outline: as §1

Gal(b1-4)Glc6S = target: Gal(b1-4)Glc6S
Outline: as §1

Gal(b1-4)GlcNAc = target: Gal(b1-4)GlcNAc
Outline: as §1

[8] = target: Gal(b1-4)GlcNAc(a1-6)Gal(b1-4)GlcNAc
Outline: as §1

Gal(b1-4)GlcNAc(b1-2)Man = target: Gal(b1-4)GlcNAc(b1-2)Man
Outline: as §1

[9] = target: Gal(b1-4)GlcNAc(b1-2)Man(a1-3)Man(b1-4)GlcNAc(b1-4)GlcNAc
Outline: as §1

[10] = target: Gal(b1-4)GlcNAc(b1-2)Man(a1-3)[Gal(b1-4)GlcNAc(b1-2)Man(a1-6)]Man(b1-4)GlcNAc(b1-4)GlcNAc
Outline: as §1

[11] = target: Gal(b1-4)GlcNAc(b1-2)Man(a1-3)[Gal(b1-4)GlcNAc(b1-2)Man(a1-6)]Man(b1-4)GlcNAc(b1-4)[Fuc(a1-6)]GlcNAc
Outline: as §1

[12] = target: Gal(b1-4)GlcNAc(b1-2)Man(a1-3)[Gal(b1-4)GlcNAc(b1-2)Man(a1-6)][Gal(b1-4)GlcNAc(b1-4)]Man(b1-4)GlcNAc(b1-4)[Fuc(a1-6)]GlcNAc
Outline: as §1

[13] = target: Gal(b1-4)GlcNAc(b1-2)Man(a1-3)[Gal(b1-4)GlcNAc(b1-2)Man(a1-6)][GlcNAc(b1-4)]Man(b1-4)GlcNAc(b1-4)[Fuc(a1-6)]GlcNAc
Outline: as §1

[14] = target: Gal(b1-4)GlcNAc(b1-2)Man(a1-3)[GlcNAc(b1-2)Man(a1-6)]Man(b1-4)GlcNAc(b1-4)GlcNAc
Outline: as §1

[15] = target: Gal(b1-4)GlcNAc(b1-2)Man(a1-3)[GlcNAc(b1-4)][Gal(b1-4)GlcNAc(b1-2)Man(a1-6)]Man(b1-4)GlcNAc(b1-4)GlcNAc
Outline: as §1

[16] = target: Gal(b1-4)GlcNAc(b1-2)Man(a1-3)[Man(a1-6)]Man(b1-4)GlcNAc(b1-4)GlcNAc
Outline: as §1

[17] = target: Gal(b1-4)GlcNAc(b1-2)Man(a1-6)Man(b1-4)GlcNAc(b1-4)GlcNAc
Outline: as §1

[18] = target: Gal(b1-4)GlcNAc(b1-2)Man(a1-6)[GlcNAc(b1-2)Man(a1-3)]Man(b1-4)GlcNAc(b1-4)GlcNAc
Outline: as §1

[19] = target: Gal(b1-4)GlcNAc(b1-2)Man(a1-6)[Man(a1-3)]Man(b1-4)GlcNAc(b1-4)GlcNAc
Outline: as §1

[20] = target: Gal(b1-4)GlcNAc(b1-2)[Gal(b1-4)GlcNAc(b1-4)]Man(a1-3)[Gal(b1-4)GlcNAc(b1-2)Man(a1-6)]Man(b1-4)GlcNAc(b1-4)GlcNAc
Outline: as §1

[21] = target: Gal(b1-4)GlcNAc(b1-2)[Gal(b1-4)GlcNAc(b1-4)]Man(a1-3)[Gal(b1-4)GlcNAc(b1-2)[Gal(b1-4)GlcNAc(b1-6)]Man(a1-6)]Man(b1-4)GlcNAc(b1-4)GlcNAc
Outline: as §1

[22] = target: Gal(b1-4)GlcNAc(b1-2)[Gal(b1-4)GlcNAc(b1-4)]Man(a1-3)[GlcNAc(b1-4)][Gal(b1-4)GlcNAc(b1-2)Man(a1-6)]Man(b1-4)GlcNAc(b1-4)GlcNAc
Outline: as §1

[23] = target: Gal(b1-4)GlcNAc(b1-2)[Gal(b1-4)GlcNAc(b1-4)]Man(a1-3)[GlcNAc(b1-4)][Gal(b1-4)GlcNAc(b1-2)[Gal(b1-4)GlcNAc(b1-6)]Man(a1-6)]Man(b1-4)GlcNAc(b1-4)GlcNAc
Outline: as §1

[24] = target: Gal(b1-4)GlcNAc(b1-2)[Gal(b1-4)GlcNAc(b1-6)]Man(a1-6)[Gal(b1-4)GlcNAc(b1-2)Man(a1-3)]Man(b1-4)GlcNAc(b1-4)GlcNAc
Outline: as §1

[25] = target: Gal(b1-4)GlcNAc(b1-2)[Gal(b1-4)GlcNAc(b1-6)]Man(a1-6)[Gal(b1-4)GlcNAc(b1-2)Man(a1-3)]Man(b1-4)GlcNAc(b1-4)[Fuc(a1-6)]GlcNAc
Outline: as §1

[26] = target: Gal(b1-4)GlcNAc(b1-2)[Gal(b1-4)GlcNAc(b1-6)]Man(a1-6)[GlcNAc(b1-4)][Gal(b1-4)GlcNAc(b1-2)Man(a1-3)]Man(b1-4)GlcNAc(b1-4)GlcNAc
Outline: as §1

[27] = target: Gal(b1-4)GlcNAc(b1-2)[Gal(b1-4)GlcNAc(b1-6)]Man(a1-6)[GlcNAc(b1-4)][Gal(b1-4)GlcNAc(b1-2)[Gal(b1-4)GlcNAc(b1-4)]Man(a1-3)]Man(b1-4)GlcNAc(b1-4)[Fuc(a1-6)]GlcNAc
Outline: as §1

[28] = target: Gal(b1-4)GlcNAc(b1-3)Gal(b1-3)GalNAc
Outline: as §1

[29] = target: Gal(b1-4)GlcNAc(b1-3)Gal(b1-3)GlcNAc
Outline: as §1

[30] = target: Gal(b1-4)GlcNAc(b1-3)Gal(b1-4)Glc
Outline: as §1

[31] = target: Gal(b1-4)GlcNAc(b1-3)Gal(b1-4)GlcNAc
Outline: as §1

[32] = target: Gal(b1-4)GlcNAc(b1-3)Gal(b1-4)GlcNAc(b1-2)Man(a1-3)[Gal(b1-4)GlcNAc(b1-3)Gal(b1-4)GlcNAc(b1-2)Man(a1-6)]Man(b1-4)GlcNAc(b1-4)GlcNAc
Outline: as §1

B1: Epa7 (Candida glabrata), Q6DTM6_CANGB (protein)
chain: MGSSHHHHHHSSGLVPRGSHMKDDYSSFLSNNNLGWTDPTEFPLGCSPNVTTPKNGLSMELYSYDLRKNGSYPCWDAAYLDPNYPRTGYKSHRLLAKVDGVTGNINFYYHATKGCTPEIDHLPASYNYPKPLTMTNFTMLLYGYFKPKVTGYHTFTISADDLLFVNFGAGNAFDCCKRESSADDFGNYQAYAVWGSQTAKDDLTVHLDAGLYYPIRIFFNNREYDAELSLTLKTESDSNPVIDFSDYFYSFDDTKDGCPGLVSYDTS
[1]
  glycan array binding signal (z-score): 2.5
[2]
  glycan array binding signal (z-score): -0.269
[3]
  glycan array binding signal (z-score): -0.198
[4]
  glycan array binding signal (z-score): 2.26
[5]
  glycan array binding signal (z-score): -0.19
Gal(b1-4)Gal
  glycan array binding signal (z-score): -0.199
[6]
  glycan array binding signal (z-score): 0.016
[7]
  glycan array binding signal (z-score): 0.755
Gal(b1-4)Glc
  glycan array binding signal (z-score): -0.199
Gal(b1-4)Glc6S
  glycan array binding signal (z-score): 0.01
Gal(b1-4)GlcNAc
  glycan array binding signal (z-score): -0.07
[8]
  glycan array binding signal (z-score): 0.542
Gal(b1-4)GlcNAc(b1-2)Man
  glycan array binding signal (z-score): -0.105
[9]
  glycan array binding signal (z-score): -0.185
[10]
  glycan array binding signal (z-score): 1.78
[11]
  glycan array binding signal (z-score): -0.193
[12]
  glycan array binding signal (z-score): -0.207
[13]
  glycan array binding signal (z-score): -0.208
[14]
  glycan array binding signal (z-score): -0.18
[15]
  glycan array binding signal (z-score): -0.227
[16]
  glycan array binding signal (z-score): -0.174
[17]
  glycan array binding signal (z-score): -0.212
[18]
  glycan array binding signal (z-score): -0.215
[19]
  glycan array binding signal (z-score): -0.204
[20]
  glycan array binding signal (z-score): 0.223
[21]
  glycan array binding signal (z-score): 0.385
[22]
  glycan array binding signal (z-score): 0.044
[23]
  glycan array binding signal (z-score): 0.541
[24]
  glycan array binding signal (z-score): 0.121
[25]
  glycan array binding signal (z-score): 0.253
[26]
  glycan array binding signal (z-score): -0.046
[27]
  glycan array binding signal (z-score): 0.58
[28]
  glycan array binding signal (z-score): -0.184
[29]
  glycan array binding signal (z-score): -0.246
[30]
  glycan array binding signal (z-score): -0.13
[31]
  glycan array binding signal (z-score): 0.699
[32]
  glycan array binding signal (z-score): -0.013
